# This is one part of the list.
# Tested on: PfSIP2 AP2 domain 1 (GST-tagged)
# Assay: gcPBM binding intensity (ln(normalized median fluorescence intensity)); higher = stronger DNA binding
# In short: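 Binding intensity values are the highest Masliner-normalised natural-log median intensity among replicate spots of either probe orientation. The binding step lasted 1 h in 1× PBS with 1% milk, 0.2 mg/ml BSA, 0.5% salmon testes DNA and 0.03% Triton X-100, using GST-tagged P. falciparum DNA-binding domains expressed in E. coli on an Agilent 4 × 180k array of primer-extended double-stranded 36-bp intergenic genomic probes plus negative controls. Alexa488 anti-GST antibody and a 488 nm scan detected bound protein.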
row,Sequence,gcPBM binding intensity (ln)
1,TGAGTATATAAATACACACACATATATATATTTTAA [CACACA_site5130],6.78
2,TTTTATTTTTAAGGATGTACTCAATTGTTTATATAC [XGTACX_site3965],7.06
3,TTTTTTTTTAATAAAATTATAATAAATATGAAATTA [XGTACX_negctrl_site369],6.67
4,ATATATATATATATATGTACACATATATATACTCAC [XGTACX_site8043],9.5
5,TTAGAAAGAATGTATTGTACATATATATTATATATA [XGTACX_site7045],7.41
6,ATATGTTTATTTATTTGTACTTATCATATAATAACA [XGTACX_site5486],7.05
7,TGTATATTTTAGTGATGTACTAATATTATTACTAAT [XGTACX_site3952],6.99
8,TGCTTAGCACACTATCTACTTCCTTTGTTTCATAAA [GTGCAC_negctrl_site495],7.25
9,TTCATTTATATAATCACACATTTTATCATCTATGTT [CACACA_site4327],7.11
10,ATCGTTATATAATGTTGTACTTGTTATATATATATA [XGTACX_site7582],8.88
11,GCATGCACGGAAAAAAGTACATATATAAATTTGGTT [XGTACX_site3393],7.2
12,GGTTCTAAAAAGGGAAGTACATGGAAAAATATAAAT [XGTACX_site4639],6.97
13,TTTTTTAAATATATTTGTACATATGAAATAAAGATA [XGTACX_site3841],6.99
14,AAAATTTAGCAAAGGTGTACAAAAGATAATTAGAGT [XGTACX_site3467],7.62
15,AAAATTATTATGAAAAGTACAAATATGTAAACATAC [XGTACX_site5517],6.99
16,ATTCTAATTAGTAAAGTGCAGATAAAATGATGCCCT [GTGCAC_site9578],7.67
17,CAGCATGGTATACCTATAAAATATATATACTAACAT [TGCATGCA_negctrl_site51],6.95
18,TTTTTAAAAAATAAGAAAAAATAAATATATTACAAA [XGTACX_negctrl_site191],6.78
19,ATGTTACACAGACACACACACATAAAAAAACAAAAA [CACACA_site7516],7.16
20,GGCATATATACATATGGTACACATTTATTAATACCG [XGTACX_site2710],7.03
21,CACATACATATATATACACACAAATATATATACGCA [CACACA_site791],7.15
22,GATGTGTATATTAAATGTACGAACAGTTGAGGCGAA [XGTACX_site7853],7.39

row,Sequence,gcPBM binding intensity (ln)
1,AGGATATAAAGTTGTGCATGTCAAGTGCACCGTATT [TGCATGCA_site451],12.2
2,AGAAAAATCTAAATTCGTACATAACGTTTAAACATA [XGTACX_site2511],6.79
3,GTTTTATTCCATTATTGTACTTAATATAAAGAAACT [XGTACX_site3054],7.41
4,ATAATAATATGTGGGTGTACATATACACATATATAT [XGTACX_site4356],7.22
5,ATAAATTGAAGTAAATTTGACCTTTTTTTTTTTTTT [GTGCAC_negctrl_site354],7.02
6,AGAACATGCAAACATGCACACAGAAAAAAAAAATAT [CACACA_site8442],8.26
7,TTTATTGATAATATATATATATATATATATATATAT [GTGCAC_negctrl_site552],9.61
8,AATATCTTAGTGGATACACACATATAAATGGGTATT [CACACA_site4426],6.81
9,TCATATGTTAAACACACACACACACCGAAAAAAACA [CACACA_site9067],7.4
10,AAAAAATTAAAAAAAAAAAAATCATGAAAAAAACAA [CACACA_negctrl_site1673],6.84
11,CCTAAATAAATGGACACACACATATATATATATATA [CACACA_site1439],9.33
12,CTTATATTAAGTATTACACACATATATATAAATGCA [CACACA_site4581],7.03
13,TATATATATATAAGAAGTACAGAAAATTAGAAAAAA [XGTACX_site8773],9.11
14,TAGAAATAAGAAAAATGTACATATAATATTGAAAGT [XGTACX_site3043],7.41
15,TTTTACGTAATATTTATACACACGAACCTTATTAAT [CACACA_site2300],6.96
16,AGTCTATAGTAATTTACACACAAAAAAATATCAGGA [CACACA_site7620],7.09
17,AGTAGTCTGGAGAAAAGTACATAGTATCTGGTAGCT [XGTACX_site2027],6.92
18,ACAAAAAAAAAAAAAAAAAGAAGAATATATCTATAT [CACACA_negctrl_site759],6.77
19,TATCATACAATATTCACACAAATAAATTGACATATT [CACACA_site5891],6.95
20,AAAAAGGAAATAATAACACACATTAGTAATTATAAA [CACACA_site7573],6.58
21,CACAGACACGGACACACACACACAAAAAAAAAAAGA [CACACA_site4436],7.27
22,TATTAAAAAAATATTTGTACTTAAAATTTATTATAT [XGTACX_site1467],7.04

row,Sequence,gcPBM binding intensity (ln)
1,TATTTTCTTTAATTAATTATTGGTCTGAATGGGGTT [CACACA_negctrl_site418],7.02
2,AGAGGAGTAAAACAAAACAAAGAGAAATAAACACAC [XGTACX_negctrl_site386],8
3,AATTAATAAATATTATATGTTAATATTTTTTTTGTT [CACACA_negctrl_site1692],6.77
4,TTTCATATCTTGTCAAGTACATATTTTTATTTTCTT [XGTACX_site2160],6.82
5,AAAAAATATAATAATTGTACACATGCACACACAAAT [XGTACX_site1563],8.22
6,ACTTAATATCGGTACACACACAAGATAAGAATTATG [CACACA_site894],7.46
7,TTTTTATAAAAATGAACACACACATATATATATATA [CACACA_site9160],9.39
8,AATAACACTATTTAACGTACAAAAAAAAAAAAGAAA [XGTACX_site3721],7.25
9,ATACTAAAAATGAATGTACACATATATATATATATA [TGCATGCA_negctrl_site209],9.28
10,TATAATAAAATATTTTGTACGTATATTTTAATATTT [XGTACX_site2582],7.2
11,AAAAAAAATAAAAATAGTACCCAAAAAATTATGAAT [XGTACX_site6641],6.98
12,TATGCACTTTAGGGCAGTACGTCAACATTATCTTTA [XGTACX_site3382],7.93
13,CCTCATACGAAATATAAACACACATACAATAAATAA [CACACA_site8620],7.06
14,ATAAATTTTTTTTTTTTTTTTTTTTTTTTTTTTTTT [CACACA_negctrl_site508],8.96
15,ATTTTTTTCATAGACACACACAATATATCTGTTTCC [CACACA_site3023],7.18
16,TATATTTATTATAACACACACATATAAATATTATAG [CACACA_site6726],7.11
17,TGTTAAAATTATTTGGTGCACTTGTTTTACCTTATT,11.3
18,CATTATTCTTTTAATATACACACTTTGTCTTTTCGC [CACACA_site2762],7.05
19,TCTCATAGTAAACACACACACACACCCACATATATA [CACACA_site5034],7.16
20,AAGATAAAATGATGCACACAAAAGGGTGTAATATAT [CACACA_site1706],7.48
21,GAAGTTTTCTTAAAGATGCACTTTTTAAAAATAAAA [GTGCAC_site9941],9.06
22,TCTTCTTTTTTTTTTTTGTATTATTATAAATATTAT [CACACA_negctrl_site1668],7.06

row,Sequence,gcPBM binding intensity (ln)
1,TTTTTTTTTTTTAATGCACACAATATATAATATGTA [CACACA_site3694],7.37
2,TTTTTTTTTTTTCAATCACACATGTTTTAATTATTT [CACACA_site5532],6.92
3,TGTACGTTTTATAACACACACACAAAAAAAAAAAAA [CACACA_site3875],7.09
4,TGTAATAATATTTATGTGCACATATATTAAACTATA [GTGCAC_site9584],8.72
5,TCATTTCACAGACACACACACACAAGATATTTCCTT [CACACA_site7774],7.21
6,TTTCTTCTTCAATGTTGTACTTTTCTCTTTTCTTAA [XGTACX_site1017],7.26
7,GTTCATAAAAATTTTTGTACCCATAAAATATTCCTC [XGTACX_site8611],7.11
8,GTAGGTGTTTTTGGTTGTACATATAAATATATATAC [XGTACX_site3380],7.37
9,TTTTTTTTTTTTAATTGTACTTATTAAAAAAAGCAA [XGTACX_site8713],7.07
10,AGATAAATATATTGTAGTACAGGAGCATAAATATAT [XGTACX_site8267],7.08
11,TATTTTCATTATACTACTTCGAAGATACCCTTTTTT [CACACA_negctrl_site256],6.79
12,TATAAACATTAAAGGTGTACAATTTAATTTCAATTT [XGTACX_site2944],7.08
13,GTTCTTCCTTGTAAATGTACAAATACAAAATGTTCC [XGTACX_site6738],7.5
14,GATATATATGTTCACACACACATGGAAATATATATA [CACACA_site4371],7.29
15,TTAAGATCCTAAAAAACACACAATTGCGAATAATAA [CACACA_site6005],6.83
16,ATATCATAAAAAATGTGTACATATATGAACATATAA [XGTACX_site2239],7.14
17,GGAAATTAACAGAACACAATGTAACAATTTCTAACA [CACACA_negctrl_site1250],6.73
18,TGGGAAAAAATATATGCACACCCCCCAAAAAAAAAA [CACACA_site8696],10.8
19,AATTCTTTATTATATGCACACGTACATATAATATAT [CACACA_site8621],7.16
20,AAAAAATGTTATAAAAGTACATAATTTATCTACCAT [XGTACX_site3035],6.94
21,TAACTTTGGAGGAGCTGTACGATTATTTTGATCCTT [XGTACX_site2514],6.81
22,AAAAAATTTCAAATAACACACACTAATATAAATATG [CACACA_site6783],6.91
